Laboratory results as given in the supplement of paper PMC8728848.
The list shows a part of the results.

Experiments:
Assay in all cases: glycan array binding signal (z-score within array); higher = stronger binding
Conditions in all cases: glycan notation: IUPAC condensed, linker removed; mutation: E41G
[1] = target: Fuc(a1-2)Gal(b1-4)GlcNAc(b1-3)Gal(b1-4)GlcNAc(b1-2)Man(a1-3)[Fuc(a1-2)Gal(b1-4)GlcNAc(b1-3)Gal(b1-4)GlcNAc(b1-2)Man(a1-6)]Man(b1-4)GlcNAc(b1-4)GlcNAc
Summary of the method: (§1)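 Glycan array data were curated from 3228 arrays in the Consortium for Functional Glycomics database and kept only where the protein sequence was available. Glycan names were converted to IUPAC-condensed notation, and columns mapping to the same glycan were averaged. The binding signal is a within-array Z-score, averaged across arrays of the same protein sequence at different concentrations or buffers and across linkers. Negative Z-scores can be read as non-binding.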

[2] = target: Fuc(a1-2)Gal(b1-4)GlcNAc(b1-3)Gal(b1-4)GlcNAc(b1-3)Gal(b1-4)GlcNAc
Summary of the method: as §1

[3] = target: Fuc(a1-2)Gal(b1-4)GlcNAc(b1-3)GalNAc
Summary of the method: as §1

[4] = target: Fuc(a1-2)Gal(b1-4)GlcNAc(b1-3)[Fuc(a1-2)Gal(b1-4)GlcNAc(b1-6)]GalNAc
Summary of the method: as §1

[5] = target: Fuc(a1-2)Gal(b1-4)GlcNAc(b1-3)[Fuc(a1-3)[Gal(b1-4)]GlcNAc(b1-6)]Gal(b1-4)Glc
Summary of the method: as §1

[6] = target: Fuc(a1-2)Gal(b1-4)GlcNAc(b1-6)GalNAc
Summary of the method: as §1

[7] = target: Fuc(a1-2)Gal(b1-4)GlcNAc6S
Summary of the method: as §1

[8] = target: Fuc(a1-2)Gal(b1-4)[Fuc(a1-3)]GlcNAc
Summary of the method: as §1

[9] = target: Fuc(a1-2)Gal(b1-4)[Fuc(a1-3)]GlcNAc(b1-2)Man(a1-3)[Fuc(a1-2)Gal(b1-4)[Fuc(a1-3)]GlcNAc(b1-2)Man(a1-6)]Man(b1-4)GlcNAc(b1-4)[Fuc(a1-6)]GlcNAc
Summary of the method: as §1

[10] = target: Fuc(a1-2)Gal(b1-4)[Fuc(a1-3)]GlcNAc(b1-2)[Fuc(a1-2)Gal(b1-4)[Fuc(a1-3)]GlcNAc(b1-4)]Man(a1-3)[Fuc(a1-2)Gal(b1-4)[Fuc(a1-3)]GlcNAc(b1-2)Man(a1-6)]Man(b1-4)GlcNAc(b1-4)GlcNAc
Summary of the method: as §1

[11] = target: Fuc(a1-2)Gal(b1-4)[Fuc(a1-3)]GlcNAc(b1-3)Gal(b1-4)[Fuc(a1-3)]GlcNAc
Summary of the method: as §1

[12] = target: Fuc(a1-2)Gal(b1-4)[Fuc(a1-3)]GlcNAc(b1-3)Gal(b1-4)[Fuc(a1-3)]GlcNAc(b1-3)Gal(b1-4)[Fuc(a1-3)]GlcNAc
Summary of the method: as §1

[13] = target: Fuc(a1-2)Gal(b1-4)[Fuc(a1-3)]GlcNAc(b1-3)GalNAc
Summary of the method: as §1

[14] = target: Fuc(a1-2)Gal(b1-4)[Fuc(a1-3)]GlcNAc(b1-3)[Neu5Ac(a2-6)Gal(b1-4)GlcNAc(b1-6)]Gal(b1-4)Glc
Summary of the method: as §1

[15] = target: Fuc(a1-2)Gal3S(b1-4)GlcNAc
Summary of the method: as §1

[16] = target: Fuc(a1-2)Gal6S(b1-3)GlcNAc
Summary of the method: as §1

[17] = target: Fuc(a1-2)Gal6S(b1-3)GlcNAc6S
Summary of the method: as §1

Fuc(a1-2)Gal6S(b1-4)Glc = target: Fuc(a1-2)Gal6S(b1-4)Glc
Summary of the method: as §1

[18] = target: Fuc(a1-2)Gal6S(b1-4)Glc6S
Summary of the method: as §1

Fuc(a1-2)[Gal(a1-3)]Gal = target: Fuc(a1-2)[Gal(a1-3)]Gal
Summary of the method: as §1

[19] = target: Fuc(a1-2)[Gal(a1-3)]Gal(b1-3)GalNAc
Summary of the method: as §1

[20] = target: Fuc(a1-2)[Gal(a1-3)]Gal(b1-3)GalNAc(b1-3)Gal(a1-4)Gal(b1-4)Glc
Summary of the method: as §1

[21] = target: Fuc(a1-2)[Gal(a1-3)]Gal(b1-3)GlcNAc
Summary of the method: as §1

[22] = target: Fuc(a1-2)[Gal(a1-3)]Gal(b1-3)GlcNAc(b1-2)Man(a1-3)[Fuc(a1-2)[Gal(a1-3)]Gal(b1-3)GlcNAc(b1-2)Man(a1-6)]Man(b1-4)GlcNAc(b1-4)GlcNAc
Summary of the method: as §1

[23] = target: Fuc(a1-2)[Gal(a1-3)]Gal(b1-3)GlcNAc(b1-2)Man(a1-3)[Fuc(a1-2)[Gal(a1-3)]Gal(b1-3)GlcNAc(b1-2)Man(a1-6)]Man(b1-4)GlcNAc(b1-4)[Fuc(a1-6)]GlcNAc
Summary of the method: as §1

[24] = target: Fuc(a1-2)[Gal(a1-3)]Gal(b1-3)GlcNAc(b1-3)GalNAc
Summary of the method: as §1

[25] = target: Fuc(a1-2)[Gal(a1-3)]Gal(b1-3)GlcNAc(b1-6)GalNAc
Summary of the method: as §1

[26] = target: Fuc(a1-2)[Gal(a1-3)]Gal(b1-4)Glc
Summary of the method: as §1

[27] = target: Fuc(a1-2)[Gal(a1-3)]Gal(b1-4)GlcNAc
Summary of the method: as §1

[28] = target: Fuc(a1-2)[Gal(a1-3)]Gal(b1-4)GlcNAc(b1-2)Man
Summary of the method: as §1

B1: CVN-E41G (protein)
chain: MHHHHHHENLYFQSGNFSQACYNSAIQGSVLTSTCIRTNGGYNTSSIDLNSVIGNVDGSLKWQGSNFIETCRNTQLAGSSELAAECKTRAQQFVSTKINLDDHIAAIDGTLKYE
- glycan array binding signal (z-score) [1]: -0.109
- glycan array binding signal (z-score) [2]: -0.145
- glycan array binding signal (z-score) [3]: -0.141
- glycan array binding signal (z-score) [4]: -0.158
- glycan array binding signal (z-score) [5]: -0.142
- glycan array binding signal (z-score) [6]: -0.14
- glycan array binding signal (z-score) [7]: -0.144
- glycan array binding signal (z-score) [8]: -0.159
- glycan array binding signal (z-score) [9]: -0.033
- glycan array binding signal (z-score) [10]: 0.014
- glycan array binding signal (z-score) [11]: -0.107
- glycan array binding signal (z-score) [12]: -0.033
- glycan array binding signal (z-score) [13]: -0.07
- glycan array binding signal (z-score) [14]: -0.162
- glycan array binding signal (z-score) [15]: -0.177
- glycan array binding signal (z-score) [16]: -0.148
- glycan array binding signal (z-score) [17]: -0.076
- glycan array binding signal (z-score) (Fuc(a1-2)Gal6S(b1-4)Glc): -0.173
- glycan array binding signal (z-score) [18]: -0.023
- glycan array binding signal (z-score) (Fuc(a1-2)[Gal(a1-3)]Gal): -0.162
- glycan array binding signal (z-score) [19]: -0.152
- glycan array binding signal (z-score) [20]: -0.088
- glycan array binding signal (z-score) [21]: -0.159
- glycan array binding signal (z-score) [22]: 0.17
- glycan array binding signal (z-score) [23]: 0.606
- glycan array binding signal (z-score) [24]: -0.166
- glycan array binding signal (z-score) [25]: -0.164
- glycan array binding signal (z-score) [26]: -0.166
- glycan array binding signal (z-score) [27]: -0.18
- glycan array binding signal (z-score) [28]: -0.14
